According to article PMC4336329 (PLoS ONE, 2015):
The whole screen tested about 310,000 compounds, of which about 14,000 (4.5%) showed an effect of 50% or more. Effects have a minus sign here. The list shows a part of the results.

These compounds were tested against human ether-à-go-go-related gene (hERG) potassium channel (human, UniProt Q12809) (assay: primary screen, population patch clamp on CHO cells stably expressing hERG).
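Also: peak tail current of the secondary pulse compared with the same well before compound.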

Sequence of human ether-à-go-go-related gene (hERG) potassium channel (Q12809 whole entry, looked up): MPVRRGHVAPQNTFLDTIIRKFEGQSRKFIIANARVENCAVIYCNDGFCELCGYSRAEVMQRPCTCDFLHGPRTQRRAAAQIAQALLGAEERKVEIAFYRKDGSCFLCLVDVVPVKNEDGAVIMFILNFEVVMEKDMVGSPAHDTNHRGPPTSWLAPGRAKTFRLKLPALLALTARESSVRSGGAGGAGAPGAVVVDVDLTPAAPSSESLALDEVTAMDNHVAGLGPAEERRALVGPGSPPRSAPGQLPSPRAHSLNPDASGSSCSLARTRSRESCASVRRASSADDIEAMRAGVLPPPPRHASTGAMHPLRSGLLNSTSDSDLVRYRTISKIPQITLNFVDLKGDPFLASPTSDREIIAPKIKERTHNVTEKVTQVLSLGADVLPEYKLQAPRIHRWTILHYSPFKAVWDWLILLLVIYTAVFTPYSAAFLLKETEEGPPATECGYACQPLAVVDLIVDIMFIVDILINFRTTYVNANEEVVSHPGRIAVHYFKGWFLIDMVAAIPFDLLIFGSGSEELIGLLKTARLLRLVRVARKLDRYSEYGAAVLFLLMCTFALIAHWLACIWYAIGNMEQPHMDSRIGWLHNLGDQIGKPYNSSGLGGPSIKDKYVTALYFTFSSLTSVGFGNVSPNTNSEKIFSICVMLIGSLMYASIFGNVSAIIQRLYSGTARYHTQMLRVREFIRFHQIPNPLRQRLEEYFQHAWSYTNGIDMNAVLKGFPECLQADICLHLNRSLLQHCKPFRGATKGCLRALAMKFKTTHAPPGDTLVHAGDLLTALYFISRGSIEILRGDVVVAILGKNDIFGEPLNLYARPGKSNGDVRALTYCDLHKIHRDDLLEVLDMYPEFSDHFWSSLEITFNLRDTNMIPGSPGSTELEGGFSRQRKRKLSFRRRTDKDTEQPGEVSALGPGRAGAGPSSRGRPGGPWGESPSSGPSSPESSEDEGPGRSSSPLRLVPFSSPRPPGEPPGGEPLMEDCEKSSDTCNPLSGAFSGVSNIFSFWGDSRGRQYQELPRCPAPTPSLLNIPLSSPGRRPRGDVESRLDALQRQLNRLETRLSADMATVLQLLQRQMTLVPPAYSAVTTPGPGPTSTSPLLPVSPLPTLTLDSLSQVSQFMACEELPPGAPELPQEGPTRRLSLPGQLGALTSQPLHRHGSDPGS

Row | SMILES | hERG current change (%, negative = inhibition) at 10uM
1 | Fc1cccc(CN2CCN(c3nc4nonc4nc3NC3CC3)CC2)c1 | -10.3%
2 | COc1ccc(-c2cc(C(=O)NC(C(=O)O)C(C)C)c(C)o2)cc1OC (stereo not shown) | -1.31%
3 | COc1ccc(C(=O)Nc2ccnn2C2CCN(C(=O)c3cnsn3)CC2)cc1 | -11.5%
4 | CCCCN1CC(=O)N2[C@H]3c4cc(Cl)ccc4OC[C@@H]3[C@H](C(=O)OCC)[C@]2(C)C1=O | 1.74%
5 | COc1ccc(C(=O)O/N=C(\C)c2nccs2)cc1 | 9.15%
6 | CC1=NNC(=O)C1Cc1ccccc1 (stereo not shown) | 4.76%
7 | CC(C)C(=O)Nc1sc2c(c1-c1nc3ccccc3[nH]1)CCCC2 | 5.94%
8 | CC(C)c1ccc(OCC(=O)Nc2ccccc2C(=O)N2CCOCC2)cc1 | -18.9%
9 | Cc1ccc(C(=O)NN2C(=O)C3C(C2=O)C2C=CC3C23CC3)cc1 (stereo not shown) | 15.9%
10 | O=S(=O)(CC12C3C4C5C1C2C(Br)(C43)C51OCCO1)c1ccccc1 (stereo not shown) | 12.1%
11 | CN1CCN(C(=S)SCC(=O)N2CCCc3ccccc32)CC1 | -2.03%
12 | COc1ccc2oc(C(=O)CCC(=O)O)c(N)c2c1 | 4.93%
13 | Cc1ccc(NC(=O)CC2SC(=Nc3ccc(O)cc3)NC2=O)cc1 (stereo not shown) | 20.8%
14 | CCCC(=O)Nc1ccc(-c2nc3cc(C)ccc3o2)cc1 | 13%
15 | COc1ccccc1CNC(=O)c1c(O)c2cc(OC)c(OC)cc2[nH]c1=O | 6.86%
16 | CCOC(=O)C1=C(C)Nc2ccccc2N=C1NC(=O)c1oc2ccccc2c1COC | -14.5%
17 | Brc1cccc(/C=N\n2cnnc2)c1 | -3.55%
18 | Cc1ccccc1CS(=O)(=O)c1snnc1C | 5.66%
19 | CCc1ccccc1N(CC(=O)N1CCN(c2ccccc2)CC1)S(C)(=O)=O | -9.83%
20 | Cc1ccc([N+](=O)[O-])cc1N/C=C/C(=O)c1ccco1 | -3.17%
21 | Cc1ccc(CCNC(=O)c2cc(S(=O)(=O)N3CCCC3)cn2C)cc1 | -15.4%
22 | COc1ccc(/C=N/Nc2ncc(C(F)(F)F)cc2Cl)cc1OC | 3%
23 | CC1CCC2(CC1)NC(=O)c1ccccc1O2 (stereo not shown) | -4.85%

Row | SMILES | hERG current change (%, negative = inhibition) at 10uM
24 | CC(C)(C)c1ccc(OCC(=O)N(c2ccccn2)C2CCCCC2)cc1 | -6.47%
25 | O=C(CCCOC(=O)c1ccc(O)cc1O)c1ccccc1 | -13.7%
26 | CC(=O)N1CCc2c(sc(NC(=O)c3cccc(N4C(=O)CCC4=O)c3)c2C(N)=O)C1 | 13.3%
27 | O=C(c1cc(N2CCOCC2)c(F)cc1[N+](=O)[O-])N1CCOCC1 | 16.7%
28 | COc1ccc(Br)cc1C(=O)Nc1cccc(C)c1 | 0.491%
29 | CN(C)c1cc[n+](CC(=O)Nc2ccc(Cl)cc2)cc1.[Cl-] | 7.28%
30 | O=C(O)CC1(CC(=O)Nc2ccc3c(c2)C(=O)OC3)CCCCC1 | 12.2%
31 | CC(C(=O)Nc1nc2ccccc2[nH]1)N1C(=O)C2CC=CCC2C1=O (stereo not shown) | 7.17%
32 | CCCCC(=O)Nc1nnc(S(=O)(=O)N(C)Cc2ccco2)s1 | 6.09%
33 | O=S(=O)(Nc1ccncc1)c1ccccc1 | 8.95%
34 | FC(F)(F)c1cccc(-c2nn[nH]n2)c1 | 6.05%
35 | COc1ccc(NC(=S)NC(NC(=O)CF)C(Cl)(Cl)Cl)cc1[N+](=O)[O-] (stereo not shown) | 15%
36 | CCCn1c(N)c(N(CCOC)C(=O)c2cccc(C(F)(F)F)c2)c(=O)[nH]c1=O | 12%
37 | O=C(CC(=O)NN=C1CCCCCC1)NCc1cccnc1 | 46.3%
38 | CC(C)CNC(=S)N(CCCO)Cc1cc2cc3c(cc2[nH]c1=O)OCO3 | -1.73%
39 | CC(C)CC(c1nnnn1Cc1ccc2c(c1)OCO2)N1CCC(C(N)=O)CC1 (stereo not shown) | 25.8%
40 | Cl.NCCSC1CC(=O)N(c2ccc(F)cc2)C1=O (stereo not shown) | 17%
41 | CCc1n[nH]c(=S)n1/N=C/c1c[nH]c2ccc(Br)cc12 | 23.9%
42 | CCn1ccc(C(=O)N2CCN(c3ncccn3)CC2)n1 | 10.3%
43 | COc1ccc(Oc2nc(C)cc(C)c2S(C)(=O)=O)cc1 | 1.99%
44 | COc1cccc(-c2nnc(NC(=O)c3ccc(S(=O)(=O)N4CC(C)OC(C)C4)cc3)o2)c1 (stereo not shown) | -10%
45 | Cc1ccc(NC(=S)NCC(O)c2ccccc2)c(C)c1 (stereo not shown) | 15.6%
46 | COc1ccc(-c2nc3ccccc3o2)cc1NC(=O)c1ccc(Br)o1 | 4.92%

Row | SMILES | hERG current change (%, negative = inhibition) at 10uM
47 | Cc1onc(-c2ccccc2)c1C(=O)NCCN1CCOCC1 | 16.8%
48 | Cc1ccc(OCC(=O)N(Cc2ccc(N(C)C)cc2)C2CCS(=O)(=O)C2)cc1C (stereo not shown) | -19.3%
49 | CCOC(=O)C1(CC2CC2)CCN(Cc2cn(C)c3ccccc23)CC1 | -31%
50 | Cc1nc(C(=O)Nc2cccc(Cl)c2Cl)nn1-c1cc(OC(C)C)c(Cl)cc1Cl | 31.1%
51 | O=C(Nc1cccc(NC(=O)c2cccc(F)c2)n1)c1cccc(F)c1 | -10%
52 | COC(=O)CCN(c1ccccc1)S(=O)(=O)c1cc(-c2cc(C)no2)ccc1C | -23.9%
53 | CCOC(=O)c1c(-c2ccc(C)cc2)csc1/N=C(\C)C1=C(O)c2ccccc2C1=O | 12%
54 | CN(C)/C=N/C(=S)Nc1ccccc1F | -1.61%
55 | COc1cccc(-c2cc(C(F)(F)F)n3nc(C(=O)N4CCC5(CC4)OCCO5)cc3n2)c1 | -16.2%
56 | CCOc1ccc(N2C(=O)Nc3ccccc3C2(O)C(=O)NCc2ccccc2)cc1 (stereo not shown) | 19%
57 | O=C(N/N=C/c1ccc[nH]1)c1cccnc1 | 3.61%
58 | O=C1CCN(C(=O)CSc2ccc(Cl)cc2)N1 | 17.4%
59 | Cc1cccc2cc(C#N)c(SCC(=O)Nc3ccccc3N3CCOCC3)nc12 | 11.6%
60 | O=C(COC(=O)Cc1ccc(F)cc1)NCc1ccco1 | 0.961%
61 | O=C(CCC(=O)OCc1cccc(C(=O)Oc2ccccc2)c1)Nc1cccc2ccccc12 | 8.85%
62 | O=C(c1cccnc1)c1ncc(C(F)(F)F)cc1Cl | -3.33%
63 | CC(C)(C#N)c1cc(Cn2cncn2)cc(C(C)(C)C#N)c1 | -5.31%
64 | CCn1c(CNC(=O)c2ccc3c(c2)OCO3)nnc1SCC(=O)Nc1cc(C)ccc1OC | -25.4%
65 | NC(=S)NNc1c(F)c(F)c(F)c(F)c1F | 28.9%
66 | Cc1sc2nc(NCCO)[nH]c(=O)c2c1C | 11.5%
67 | O=c1cccccc1NN=C1CCCCCC1 | 12.5%
68 | COCCCN1C(=O)C(O)=C(C(=O)c2ccco2)C1c1ccc(Br)cc1 (stereo not shown) | -6.68%
69 | O=C(COC(=O)c1cc(=O)[nH]c2ccccc12)NCc1ccc(F)cc1 | -11.5%

Row | SMILES | hERG current change (%, negative = inhibition) at 10uM
70 | CN(C)CCCn1c2c(c(SCC(=O)Nc3cccc4ccccc34)nc1=O)CCC2 | -38.4%
71 | COc1ccc(CNC(=O)CNC(=O)c2ccc(Br)o2)cc1OC | 23.7%
72 | CC(C)CC(=O)N1CCN(Cc2cccc([N+](=O)[O-])c2)CC1 | 5.78%
73 | CC1CCCN(CCCN2C(=O)C3C(C(=O)Nc4ccc(Cl)cc4)C4C=CC3(O4)C2C(=O)NC2CCCCC2)C1 (stereo not shown) | -7.67%
74 | CC1(C)Cc2c(c(-c3ccccc3)[nH]c(=O)c2C#N)CS1 | 15.3%
75 | Cn1ccnc1C1CCCCN1Cc1nc(Cc2cccc(C(F)(F)F)c2)no1 (stereo not shown) | -15.4%
76 | CCNc1nc(Cl)nc(-c2cn(-c3ccccc3)c3ccccc23)n1 | 11.5%
77 | O=C(c1ccc([N+](=O)[O-])cc1)N1CCOC12CCN(c1ncc(C(F)(F)F)cc1Cl)CC2 | 9.88%
78 | Nc1ccn([C@@H]2O[C@H](CO)[C@@H](O)[C@@H]2O)c(=O)n1 | -2.36%
79 | Cc1ccc(-c2nn3nnnc3c3ccccc23)cc1C | -1.31%
80 | Nc1cnn(Cc2ccccc2F)c1 | 16.3%
81 | Oc1[nH]c(N=C2N=c3ccccc3=N2)c2ccccc12 | 5.16%
82 | COc1ccc(S(=O)(=O)N2CCN(c3ncnc4c(-c5ccccc5)nsc34)CC2)cc1 | -9.1%
83 | CCOC(=O)C1=C(C)NC(C)=C(C(=O)OCC)C1C(=O)OC1CCOC1=O (stereo not shown) | 12.6%
84 | Cc1ccc(C)c2c1N(Cc1ccccc1)C(=O)C21OCCO1 | -21.8%
85 | COc1ccc(-n2c(Cn3c(=O)sc4ccccc43)nnc2SCC(=O)N2CCCCC2)cc1 | -37%
86 | Cc1ccc(C)c(S(=O)(=O)N2C(=S)NC(=O)C2CC(C)C)c1 (stereo not shown) | 14.5%
87 | O=C(O)CN1C(=O)CNC1=O | 16.8%
88 | Cc1cc2[nH]c(=O)cc(-c3ccccc3)n2n1 | 6.41%
89 | Cc1cccc(N(CC(=O)N=Nc2c(O)[nH]c3ccccc23)S(C)(=O)=O)c1C | -8.1%
90 | Cc1ccc(S(=O)(=O)N2CCN(C(=O)COC(=O)c3ccccc3Cl)CC2)c(C)c1 | -12.5%
91 | Cc1nn(Cc2ccccc2Cl)c(C)c1NC(=O)Cn1nc([N+](=O)[O-])c(Cl)c1C | 7.21%
